T1: UNK ZnF1-3 (human, UniProt Q9C0B0 31-174)
T1 sequence: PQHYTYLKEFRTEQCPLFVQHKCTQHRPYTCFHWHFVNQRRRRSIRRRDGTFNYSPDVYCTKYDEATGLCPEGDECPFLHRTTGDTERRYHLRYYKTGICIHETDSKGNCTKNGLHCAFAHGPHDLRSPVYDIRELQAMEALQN

B1: 138266329_138268266_2328_CDS_ENSG00000044115_ENST00000302763|human|control|control (ssRNA)
RNA: GGGAGUUCUACAGUCCGACGAUCAUGGUCUGCAAUGGUGCGGCCAAGCUUGUCCAUCCUGGAUCCUGCCUCAGCAAUUUUCUUGGCAGCACUGAUGACAUCCGAUGUAUUUUUGAGUGGUCCUUUACCUCGGGUAAAGUCUGUCAACAGAGGAUUGAGCAUCA
B2: chr1:58468927:58468928:-_ENSMUSG00000026034_ENSMUST00000148330|mus_mus|mus_mus_mus_hu_False|68_78 (ssRNA)
RNA: GGGAGUUCUACAGUCCGACGAUCAAUUACUGAAAAAGAUGUUCAUUACCUUAGCUAGGCCAUGUAUUUAAUAAAGCACCCAAACAAAAUAAACAUGGCAAUAUAAAAAUGUUAAGAAUUUACAAAGCUGUACAAAAUAACUUACAACAGAGGAUUGAGCAUCA
B3: chr1:39463905:39463906:+_ENSG00000174574_ENST00000432648|hu_hu|motif|central (ssRNA)
RNA: GGGAGUUCUACAGUCCGACGAUCUGAGGAGUGAGGUUGACUUUCCGAAGCACAAGCUUCACUCUGAUUAAGAACAACUUCGGAAUGUCUCCACCUCUGAUAACGACUAUAUUCUUGUUUUAUGUUCUGAAAAAUUUGCUCCGGCAACAGAGGAUUGAGCAUCA
B4: chr19:16212804:16212805:+_ENSG00000167460_ENST00000300933|hu_mus|hu_hu_hu_mus_False|38_108 (ssRNA)
RNA: GGGAGUUCUACAGUCCGACGAUCAACAAAUAUGCAAUGAAGGAAAGAUGUAACAUGGAACAGCAUUAAAGCUCAGUCAGAAGGCACAUGGGCAACAAUGACUAUUUCAGCAUUCUCGCUUGGAAUGCUUAAAGACAAUCUGUUCAACAGAGGAUUGAGCAUCA
B5: chrX:98862621:98862622:+_ENSMUSG00000034160_ENSMUST00000044475|mus_hu|mus_mus_mus_hu_False|8_88 (ssRNA)
RNA: GGGAGUUCUACAGUCCGACGAUCCUGCAUCUCCUUUAGAGUGUUUCCCAUAUUGGAGUAGGCAUCAGCAAAGGUAGGACUGAUUCGAAUAGCCUCCUUAUAAUGCAUCAGAGCUUCCUGCAGUUUUCCCUGCUGUUGCAGUACCAACAGAGGAUUGAGCAUCA
B6: 49670665_49670785_2326_CDS_ENSG00000102935_ENST00000562871|human|control|control (ssRNA)
RNA: GGGAGUUCUACAGUCCGACGAUCGUGGCACUGCAGCUCCACCUCGGUGCUGAAGGUCUCCCCACAGAAGAUGCACUUGUGAGCCUUGGCCGGGUUGCCCAGGUGGCUGUGUUUGACGUGCACCUGCAGGUCAGCCUCCUUGCGCAACAGAGGAUUGAGCAUCA
B7: chr5:146773406:146773407:-_ENSG00000113657_ENST00000343218|hu_mus|FALSE|FALSE (ssRNA)
RNA: GGGAGUUCUACAGUCCGACGAUCGAUCGCAUGCAUGUAAGUGGGGGUGGGGUGGGGGUGGGGUUCAAAGAAAUUGAGAGUAUGCAAAAACAGAAACCAAAGCAAUUCAUAAAGCUAGGCAAGCGAGCAUAACAUUGGGAAACACAACAGAGGAUUGAGCAUCA
B8: chr18:67805652:67805653:+_ENSMUSG00000024537_ENSMUST00000025418|mus_mus|FALSE|FALSE (ssRNA)
RNA: GGGAGUUCUACAGUCCGACGAUCGUACUUAAUAAAGAUGGACCUUAACUGAAGCACCACUAGCUUCUUUGACGGUAAGGAAUACACUUCAGUAUUUAUACUGAGCUCAUUUGAAUUUUCUUCUUCAGUUGCAUAUGGAUUGUUCAACAGAGGAUUGAGCAUCA
B9: chr1:65217810:65217811:-_ENSMUSG00000025950_ENSMUST00000097709|mus_hu|motif|central (ssRNA)
RNA: GGGAGUUCUACAGUCCGACGAUCAGCUUCUGCAGCAUCCUUGGUGACUUGGUCGUUGGUGGCAUCACGAUUCUCGGUGCCGGAAUCAUAGCUAUGUAGAUCCAAUUCCACGUAGGGAAAAAUGAGUUUCUCUUUAAUCAAUUCCAACAGAGGAUUGAGCAUCA
B10: chr3:87734452:87734453:+_ENSMUSG00000048039_ENSMUST00000055984|mus_hu|FALSE|FALSE (ssRNA)
RNA: GGGAGUUCUACAGUCCGACGAUCCCGGAAGCGUCCGGAGCCGGAUGCGGAAAUCGGUGCGCGCCGACGAAGCCCGGGAAGGCAGGCGCGCGGGUUAGAACGCGCCAGAGGUCGGCGCGCGCACACCCGCACCGCCCCGACCCCCAACAGAGGAUUGAGCAUCA
B11: chr12:39756943:39756944:-_ENSG00000139116_ENST00000544797|hu_mus|FALSE|FALSE (ssRNA)
RNA: GGGAGUUCUACAGUCCGACGAUCGGUUUGGCUGUUACCCCCAAGGGAAUCCUGCAAGAGUCUUGUCAGCUUAGAGUCUCUGUAAGGGACAUGGGUGGCUCUCUUGCUCUUGUCCCCCAAGGCGCUGAUUACAUUCCCAAGAGCCAACAGAGGAUUGAGCAUCA
B12: chr1:182352875:182352876:-_ENSG00000135821_ENST00000339526|hu_mus|FALSE|FALSE (ssRNA)
RNA: GGGAGUUCUACAGUCCGACGAUCAUCCACACAUCCAUAUAUAUAUAACUUUUUUGUUUUUAACAUUUAAAUAUAAAAAUACUACUCUGCUUUGUGUUAUGAACGGAGGACCAAGAAAUGCCAACUUUUUUCUUCCUUCACAGUCAACAGAGGAUUGAGCAUCA
B13: chr4:57314706:57314707:+_ENSG00000128050_ENST00000264221|hu_mus|hu_hu_hu_mus_True|98_98 (ssRNA)
RNA: GGGAGUUCUACAGUCCGACGAUCCAGAAUUUCAAAAAUAGCCUGUGUGGCAUGACUCAUGAUGUCCACUUCAGUCUGCCCUAUAACAAGGCCAGCAAAACAGAAUUUUGCAGCAAUGAGUUGCUCCUCAGACCACUGUGGAUCCAACAGAGGAUUGAGCAUCA
B14: chrX:77155053:77155054:+_ENSG00000131174_ENST00000481445|hu_mus|FALSE|FALSE (ssRNA)
RNA: GGGAGUUCUACAGUCCGACGAUCCGAACUUGGAGACGGCUUAGUGCGUUUUUGGCUAAGGGCAACAUCGCGGAGACGAAGAUGGAACUGCGGCGACUAUGCUGCUGCCUUGGUGCAAAUUCACCCCAGCUACCCUUGCAAAGCCAACAGAGGAUUGAGCAUCA

The list shows a part of the results.

This assay concerns the target T1, UNK ZnF1-3. The assay is described as follows: nsRBNS (natural sequence RNA bind-n-seq); RBNS binding buffer (assumed for nsRBNS): 25 mM Tris pH 7.5, 150 mM KCl, 3 mM MgCl2, 0.01% Triton X-100, 500 ug/ml BSA, 20 U/ml SUPERase-In, 4 C; UNK is unkempt and MSI1 is Musashi-1; names of the RNAs are library labels; protein concentration not given here; high values mean tight binding.
B1: the binding signal was 0.394 enrichment R.

Consider B2, for which the binding signal was 2.58 enrichment R. Consider B3, for which the binding signal amounted to 0.767 enrichment R.

The molecule B4 displayed a binding signal of 0.955 enrichment R. As for B5, the figure is 0.844 enrichment R. Next, B6: 0.376 enrichment R; B7: 1.86 enrichment R; B8: 0.639 enrichment R. Next, B9: 1.06 enrichment R. On to B10, for which the binding signal is 0.351 enrichment R. Next, B11: 0.773 enrichment R; B12: 2.48 enrichment R. Molecule B13 registered a binding signal of 0.888 enrichment R. As for B14, the figure is 0.92 enrichment R.

Values taken from publication PMC12136788.
